Reference: the supplement of paper PMC8728848
The list shows a part of the results.

How the values were obtained:
Experiment in all cases: glycan array binding signal (z-score within array); higher = stronger binding
Settings in all cases: glycan notation: IUPAC condensed, linker removed; mutation: H59Q
[1] = molecular target: Gal(b1-4)GlcNAc(b1-2)[Gal(b1-4)GlcNAc(b1-6)]Man(a1-6)[Gal(b1-4)GlcNAc(b1-2)Man(a1-3)]Man(b1-4)GlcNAc(b1-4)[Fuc(a1-6)]GlcNAc
How it was run: (§1)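 Columns mapping to the same glycan were averaged after glycan names were converted to IUPAC-condensed notation. The data come from 3228 arrays in the Consortium for Functional Glycomics database, limited to those with an available protein sequence. Binding is reported as a within-array Z-score averaged across arrays of one protein sequence and across linkers.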

[2] = molecular target: Gal(b1-4)GlcNAc(b1-2)[Gal(b1-4)GlcNAc(b1-6)]Man(a1-6)[GlcNAc(b1-4)][Gal(b1-4)GlcNAc(b1-2)Man(a1-3)]Man(b1-4)GlcNAc(b1-4)GlcNAc
How it was run: as §1

[3] = molecular target: Gal(b1-4)GlcNAc(b1-2)[Gal(b1-4)GlcNAc(b1-6)]Man(a1-6)[GlcNAc(b1-4)][Gal(b1-4)GlcNAc(b1-2)[Gal(b1-4)GlcNAc(b1-4)]Man(a1-3)]Man(b1-4)GlcNAc(b1-4)[Fuc(a1-6)]GlcNAc
How it was run: as §1

[4] = molecular target: Gal(b1-4)GlcNAc(b1-3)Gal(b1-3)GalNAc
How it was run: as §1

[5] = molecular target: Gal(b1-4)GlcNAc(b1-3)Gal(b1-3)GlcNAc
How it was run: as §1

[6] = molecular target: Gal(b1-4)GlcNAc(b1-3)Gal(b1-4)Glc
How it was run: as §1

[7] = molecular target: Gal(b1-4)GlcNAc(b1-3)Gal(b1-4)GlcNAc
How it was run: as §1

[8] = molecular target: Gal(b1-4)GlcNAc(b1-3)Gal(b1-4)GlcNAc(b1-2)Man(a1-3)[Gal(b1-4)GlcNAc(b1-3)Gal(b1-4)GlcNAc(b1-2)Man(a1-6)]Man(b1-4)GlcNAc(b1-4)GlcNAc
How it was run: as §1

[9] = molecular target: Gal(b1-4)GlcNAc(b1-3)Gal(b1-4)GlcNAc(b1-2)Man(a1-3)[Gal(b1-4)GlcNAc(b1-3)Gal(b1-4)GlcNAc(b1-2)Man(a1-6)]Man(b1-4)GlcNAc(b1-4)[Fuc(a1-6)]GlcNAc
How it was run: as §1

[10] = molecular target: Gal(b1-4)GlcNAc(b1-3)Gal(b1-4)GlcNAc(b1-2)[Gal(b1-4)GlcNAc(b1-3)Gal(b1-4)GlcNAc(b1-6)]Man(a1-6)[Gal(b1-4)GlcNAc(b1-3)Gal(b1-4)GlcNAc(b1-2)Man(a1-3)]Man(b1-4)GlcNAc(b1-4)GlcNAc
How it was run: as §1

[11] = molecular target: Gal(b1-4)GlcNAc(b1-3)Gal(b1-4)GlcNAc(b1-2)[Gal(b1-4)GlcNAc(b1-3)Gal(b1-4)GlcNAc(b1-6)]Man(a1-6)[Gal(b1-4)GlcNAc(b1-3)Gal(b1-4)GlcNAc(b1-2)Man(a1-3)]Man(b1-4)GlcNAc(b1-4)[Fuc(a1-6)]GlcNAc
How it was run: as §1

[12] = molecular target: Gal(b1-4)GlcNAc(b1-3)Gal(b1-4)GlcNAc(b1-3)Gal(b1-4)GlcNAc
How it was run: as §1

[13] = molecular target: Gal(b1-4)GlcNAc(b1-3)Gal(b1-4)GlcNAc(b1-3)Gal(b1-4)GlcNAc(b1-2)Man(a1-3)[Gal(b1-4)GlcNAc(b1-3)Gal(b1-4)GlcNAc(b1-3)Gal(b1-4)GlcNAc(b1-2)Man(a1-6)]Man(b1-4)GlcNAc(b1-4)GlcNAc
How it was run: as §1

[14] = molecular target: Gal(b1-4)GlcNAc(b1-3)Gal(b1-4)GlcNAc(b1-3)Gal(b1-4)GlcNAc(b1-2)Man(a1-3)[Gal(b1-4)GlcNAc(b1-3)Gal(b1-4)GlcNAc(b1-3)Gal(b1-4)GlcNAc(b1-2)Man(a1-6)]Man(b1-4)GlcNAc(b1-4)[Fuc(a1-6)]GlcNAc
How it was run: as §1

[15] = molecular target: Gal(b1-4)GlcNAc(b1-3)Gal(b1-4)GlcNAc(b1-3)Gal(b1-4)GlcNAc(b1-2)[Gal(b1-4)GlcNAc(b1-3)Gal(b1-4)GlcNAc(b1-3)Gal(b1-4)GlcNAc(b1-6)]Man(a1-6)[Gal(b1-4)GlcNAc(b1-3)Gal(b1-4)GlcNAc(b1-3)Gal(b1-4)GlcNAc(b1-2)Man(a1-3)]Man(b1-4)GlcNAc(b1-4)[Fuc(a1-6)]GlcNAc
How it was run: as §1

[16] = molecular target: Gal(b1-4)GlcNAc(b1-3)Gal(b1-4)GlcNAc(b1-3)Gal(b1-4)GlcNAc(b1-3)Gal(b1-4)GlcNAc(b1-2)Man(a1-3)[Gal(b1-4)GlcNAc(b1-3)Gal(b1-4)GlcNAc(b1-3)Gal(b1-4)GlcNAc(b1-3)Gal(b1-4)GlcNAc(b1-2)Man(a1-6)]Man(b1-4)GlcNAc(b1-4)GlcNAc
How it was run: as §1

[17] = molecular target: Gal(b1-4)GlcNAc(b1-3)Gal(b1-4)GlcNAc(b1-3)Gal(b1-4)GlcNAc(b1-3)Gal(b1-4)GlcNAc(b1-2)Man(a1-3)[Gal(b1-4)GlcNAc(b1-3)Gal(b1-4)GlcNAc(b1-3)Gal(b1-4)GlcNAc(b1-3)Gal(b1-4)GlcNAc(b1-2)Man(a1-6)]Man(b1-4)GlcNAc(b1-4)[Fuc(a1-6)]GlcNAc
How it was run: as §1

[18] = molecular target: Gal(b1-4)GlcNAc(b1-3)Gal(b1-4)GlcNAc(b1-3)Gal(b1-4)GlcNAc(b1-3)Gal(b1-4)GlcNAc(b1-2)[Gal(b1-4)GlcNAc(b1-3)Gal(b1-4)GlcNAc(b1-3)Gal(b1-4)GlcNAc(b1-3)Gal(b1-4)GlcNAc(b1-6)]Man(a1-6)[Gal(b1-4)GlcNAc(b1-3)Gal(b1-4)GlcNAc(b1-3)Gal(b1-4)GlcNAc(b1-3)Gal(b1-4)GlcNAc(b1-2)Man(a1-3)]Man(b1-4)GlcNAc(b1-4)[Fuc(a1-6)]GlcNAc
How it was run: as §1

[19] = molecular target: Gal(b1-4)GlcNAc(b1-3)Gal(b1-4)GlcNAc(b1-3)Gal(b1-4)GlcNAc(b1-3)Gal(b1-4)GlcNAc(b1-3)Gal(b1-4)GlcNAc(b1-2)Man(a1-3)[Gal(b1-4)GlcNAc(b1-3)Gal(b1-4)GlcNAc(b1-3)Gal(b1-4)GlcNAc(b1-3)Gal(b1-4)GlcNAc(b1-3)Gal(b1-4)GlcNAc(b1-2)Man(a1-6)]Man(b1-4)GlcNAc(b1-4)GlcNAc
How it was run: as §1

[20] = molecular target: Gal(b1-4)GlcNAc(b1-3)Gal(b1-4)GlcNAc(b1-3)Gal(b1-4)GlcNAc(b1-3)Gal(b1-4)GlcNAc(b1-3)Gal(b1-4)GlcNAc(b1-2)Man(a1-3)[Gal(b1-4)GlcNAc(b1-3)Gal(b1-4)GlcNAc(b1-3)Gal(b1-4)GlcNAc(b1-3)Gal(b1-4)GlcNAc(b1-3)Gal(b1-4)GlcNAc(b1-2)Man(a1-6)]Man(b1-4)GlcNAc(b1-4)[Fuc(a1-6)]GlcNAc
How it was run: as §1

[21] = molecular target: Gal(b1-4)GlcNAc(b1-3)Gal(b1-4)GlcNAc(b1-3)Gal(b1-4)GlcNAc(b1-3)Gal(b1-4)GlcNAc(b1-3)Gal(b1-4)GlcNAc(b1-2)[Gal(b1-4)GlcNAc(b1-3)Gal(b1-4)GlcNAc(b1-3)Gal(b1-4)GlcNAc(b1-3)Gal(b1-4)GlcNAc(b1-3)Gal(b1-4)GlcNAc(b1-6)]Man(a1-6)[Gal(b1-4)GlcNAc(b1-3)Gal(b1-4)GlcNAc(b1-3)Gal(b1-4)GlcNAc(b1-3)Gal(b1-4)GlcNAc(b1-3)Gal(b1-4)GlcNAc(b1-2)Man(a1-3)]Man(b1-4)GlcNAc(b1-4)[Fuc(a1-6)]GlcNAc
How it was run: as §1

[22] = molecular target: Gal(b1-4)GlcNAc(b1-3)Gal(b1-4)GlcNAc(b1-3)Gal(b1-4)GlcNAc(b1-3)Gal(b1-4)GlcNAc(b1-3)Gal(b1-4)GlcNAc(b1-3)Gal(b1-4)GlcNAc(b1-2)Man(a1-3)[Gal(b1-4)GlcNAc(b1-3)Gal(b1-4)GlcNAc(b1-3)Gal(b1-4)GlcNAc(b1-3)Gal(b1-4)GlcNAc(b1-3)Gal(b1-4)GlcNAc(b1-3)Gal(b1-4)GlcNAc(b1-2)Man(a1-6)]Man(b1-4)GlcNAc(b1-4)GlcNAc
How it was run: as §1

[23] = molecular target: Gal(b1-4)GlcNAc(b1-3)Gal(b1-4)GlcNAc(b1-3)GalNAc
How it was run: as §1

B1: rAAL-H59Q (Agrocybe aegerita), Q6WY08 (protein)
chain: MQGVNIYNISAGTSVDLAAPVTTGDIVTFFSSALNLNAGAGNPNNTTLNLFAENGAYLLQIAFRLQENVIIFNSRQPDGPWLVEQRVSDVANQFAGIDGKAMVTVFDHGDKYQVVINEKTVIQYTKQISGLTLSLSYNATEETSIFSTVVEAVTYTGLALEHHHHHH
- glycan array binding signal (z-score) [1]: -0.016
- glycan array binding signal (z-score) [2]: -0.134
- glycan array binding signal (z-score) [3]: -0.097
- glycan array binding signal (z-score) [4]: -0.179
- glycan array binding signal (z-score) [5]: -0.091
- glycan array binding signal (z-score) [6]: -0.055
- glycan array binding signal (z-score) [7]: -0.121
- glycan array binding signal (z-score) [8]: -0.11
- glycan array binding signal (z-score) [9]: -0.015
- glycan array binding signal (z-score) [10]: -0.088
- glycan array binding signal (z-score) [11]: -0.002
- glycan array binding signal (z-score) [12]: -0.126
- glycan array binding signal (z-score) [13]: -0.073
- glycan array binding signal (z-score) [14]: -0.075
- glycan array binding signal (z-score) [15]: -0.046
- glycan array binding signal (z-score) [16]: -0.087
- glycan array binding signal (z-score) [17]: 0.057
- glycan array binding signal (z-score) [18]: 0.041
- glycan array binding signal (z-score) [19]: 0.018
- glycan array binding signal (z-score) [20]: -0.067
- glycan array binding signal (z-score) [21]: 0.012
- glycan array binding signal (z-score) [22]: -0.085
- glycan array binding signal (z-score) [23]: -0.093
